Data: the supplement of paper PMC4967469

Compound: O=C1NC(=O)/C(=C\c2ccc3nccnc3c2)S1 [AS605240]
Experiment: Viability of human cancer cell lines after 72 h of drug (GDSC screen)
Settings: top dose inferred
Protocol: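 Human cancer cell lines in 384-well plates, medium with 10% serum, drug for 72 h over a 256-fold dose range (nine 2-fold or five 4-fold steps up to the top dose). Adherent lines were fixed and stained with the nucleic acid dye Syto60, suspension lines read with resazurin; signal relative to control wells, capped at 0 and 100%. One two-parameter sigmoid per drug and line, fitted in a mixed model over all curves with the slope shared within a line.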

Point of comparison: “RL (B-cell lymphoma, suspension, top dose 20 µM)”, AUC 0.818. Against it:
- PCI-6A (head and neck, adherent, top dose 20 µM) — higher, 0.88
- PCI-15A (head and neck, adherent, top dose 20 µM) — higher, 0.899
- PCI-30 (head and neck, adherent, top dose 20 µM) — higher, 0.974
- PCI-38 (head and neck, adherent, top dose 20 µM) — higher, 0.944
- PE/CA-PJ15 (head and neck, adherent, top dose 20 µM) — higher, 0.949
- PEO1 (ovary, adherent, top dose 20 µM) — higher, 0.855
- PF-382 (T-cell lymphoblastic leukaemia, suspension, top dose 20 µM) — lower, 0.605
- PFSK-1 (medulloblastoma, adherent, top dose 20 µM) — higher, 0.876
- PL4 (pancreas, adherent, top dose 20 µM) — higher, 0.905
- PL18 (pancreas, adherent, top dose 20 µM) — higher, 0.845
- PL-21 (acute myeloid leukaemia, suspension, top dose 20 µM) — lower, 0.456
- PSN1 (pancreas, adherent, top dose 20 µM) — lower, 0.252
- QGP-1 (pancreas, adherent, top dose 20 µM) — lower, 0.716
- QIMR-WIL (acute myeloid leukaemia, suspension, top dose 20 µM) — lower, 0.499
- RC-K8 (B-cell lymphoma, suspension, top dose 20 µM) — higher, 0.977
- RCC10RGB (kidney, adherent, top dose 10.24 µM) — higher, 0.931
- RCC-AB (kidney, adherent, top dose 20 µM) — higher, 0.822
- RCC-ER (kidney, adherent, top dose 20 µM) — higher, 0.938
- RCC-FG2 (kidney, adherent, top dose 20 µM) — higher, 0.892
- RCC-JF (kidney, adherent, top dose 20 µM) — higher, 0.828
- RCC-JW (kidney, adherent, top dose 20 µM) — lower, 0.581
- RCC-MF (kidney, adherent, top dose 20 µM) — lower, 0.726
- RCM-1 (large intestine, adherent, top dose 20 µM) — lower, 0.535
- RD (rhabdomyosarcoma, adherent, top dose 20 µM) — higher, 0.964
- REH (B-cell leukaemia, suspension, top dose 20 µM) — higher, 0.923
- RERF-GC-1B (stomach, adherent, top dose 20 µM) — higher, 0.958
- RERF-LC-KJ (lung adenocarcinoma, adherent, top dose 20 µM) — higher, 0.962
- RERF-LC-MS (lung adenocarcinoma, adherent, top dose 20 µM) — higher, 0.849
- RERF-LC-Sq1 (lung squamous cell carcinoma, adherent, top dose 20 µM) — higher, 0.839
- RF-48 (stomach, adherent, top dose 20 µM) — lower, 0.77
- RH-1 (rhabdomyosarcoma, adherent, top dose 20 µM) — higher, 0.832
- RH-41 (rhabdomyosarcoma, adherent, top dose 20 µM) — higher, 0.966
- RKN (ovary, adherent, top dose 20 µM) — lower, 0.386
- RKO (large intestine, adherent, top dose 20 µM) — higher, 0.883
- RL95-2 (endometrium, adherent, top dose 20 µM) — higher, 0.977
- RO82-W-1 (thyroid, adherent, top dose 20 µM) — higher, 0.982
- ROS-50 (B-cell leukaemia, suspension, top dose 20 µM) — higher, 0.931
- RPMI-2650 (head and neck, adherent, top dose 20 µM) — higher, 0.911
- RPMI-6666 (Hodgkin lymphoma, suspension, top dose 20 µM) — lower, 0.622
- RPMI-7951 (melanoma, adherent, top dose 20 µM) — lower, 0.791
- RPMI-8226 (myeloma, suspension, top dose 20 µM) — higher, 0.94
- RPMI-8402 (T-cell lymphoblastic leukaemia, suspension, top dose 20 µM) — lower, 0.483
- RPMI-8866 (chronic myeloid leukaemia, suspension, top dose 20 µM) — higher, 0.884
- RS4-11 (leukaemia, suspension, top dose 20 µM) — higher, 0.888
- RT4 (bladder, adherent, top dose 20 µM) — higher, 0.987
- RT-112 (bladder, adherent, top dose 20 µM) — higher, 0.864
- RVH-421 (melanoma, adherent, top dose 20 µM) — lower, 0.661
- RXF393 (kidney, adherent, top dose 20 µM) — higher, 0.978
- Raji (Burkitt lymphoma, suspension, top dose 20 µM) — higher, 0.899
- Ramos-2G6-4C10 (Burkitt lymphoma, suspension, top dose 20 µM) — higher, 0.885
- SAS (head and neck, adherent, top dose 20 µM) — lower, 0.78
- SAT (head and neck, adherent, top dose 20 µM) — lower, 0.772
- SBC-1 (small cell lung carcinoma, suspension, top dose 20 µM) — higher, 0.981
- SBC-3 (small cell lung carcinoma, adherent, top dose 20 µM) — higher, 0.878
- SBC-5 (small cell lung carcinoma, adherent, top dose 20 µM) — higher, 0.952
- SCC90 (head and neck, adherent, top dose 20 µM) — lower, 0.668
- SCC-3 (B-cell lymphoma, suspension, top dose 20 µM) — higher, 0.946
- SCC-4 (head and neck, adherent, top dose 20 µM) — higher, 0.927
- SCC-9 (head and neck, adherent, top dose 20 µM) — lower, 0.544
- SCC-15 (head and neck, adherent, top dose 20 µM) — lower, 0.656
- SCC-25 (head and neck, adherent, top dose 20 µM) — lower, 0.817
- SCH (stomach, adherent, top dose 20 µM) — higher, 0.988
- SF126 (glioma, adherent, top dose 20 µM) — higher, 0.904
- SF268 (glioma, adherent, top dose 20 µM) — higher, 0.826
- SF295 (glioma, adherent, top dose 20 µM) — higher, 0.925
- SF539 (glioma, adherent, top dose 20 µM) — higher, 0.925
- SH-4 (melanoma, adherent, top dose 20 µM) — lower, 0.384
- SHP-77 (small cell lung carcinoma, semi-adherent, top dose 20 µM) — higher, 0.843
- SIG-M5 (acute myeloid leukaemia, suspension, top dose 20 µM) — lower, 0.014
- SIMA (neuroblastoma, adherent, top dose 20 µM) — higher, 0.978
- SISO (cervix, adherent, top dose 20 µM) — higher, 0.971
- SJRH30 (rhabdomyosarcoma, adherent, top dose 20 µM) — higher, 0.96
- SJSA-1 (bone, adherent, top dose 20 µM) — higher, 0.831
- SK-CO-1 (large intestine, adherent, top dose 20 µM) — higher, 0.989
- SK-ES-1 (Ewing sarcoma, semi-adherent, top dose 20 µM) — higher, 0.849
- SK-GT-4 (oesophagus, adherent, top dose 20 µM) — higher, 0.824
- SK-HEP-1 (liver, adherent, top dose 20 µM) — higher, 0.988
- SK-LMS-1 (soft tissue, adherent, top dose 20 µM) — lower, 0.687
- SK-LU-1 (lung adenocarcinoma, adherent, top dose 20 µM) — lower, 0.814
- SK-MEL-1 (melanoma, suspension, top dose 20 µM) — lower, 0.545
- SK-MEL-2 (melanoma, adherent, top dose 20 µM) — higher, 0.946

Point of comparison: “RPMI-7951 (melanoma, adherent, top dose 20 µM)”, IC50 8.71 µM. Against it:
- PCI-6A (head and neck, adherent, top dose 20 µM) — higher, > 20 µM
- PCI-15A (head and neck, adherent, top dose 20 µM) — higher, > 20 µM
- PCI-30 (head and neck, adherent, top dose 20 µM) — higher, > 20 µM
- PCI-38 (head and neck, adherent, top dose 20 µM) — higher, > 20 µM
- PE/CA-PJ15 (head and neck, adherent, top dose 20 µM) — higher, > 20 µM
- PEO1 (ovary, adherent, top dose 20 µM) — 2-fold higher, 17 µM
- PF-382 (T-cell lymphoblastic leukaemia, suspension, top dose 20 µM) — 3.7-fold lower, 2.34 µM
- PFSK-1 (medulloblastoma, adherent, top dose 20 µM) — higher, > 20 µM
- PL4 (pancreas, adherent, top dose 20 µM) — higher, > 20 µM
- PL18 (pancreas, adherent, top dose 20 µM) — 1.7-fold higher, 14.4 µM
- PL-21 (acute myeloid leukaemia, suspension, top dose 20 µM) — 9.4-fold lower, 0.928 µM
- PSN1 (pancreas, adherent, top dose 20 µM) — 31-fold lower, 0.28 µM
- QGP-1 (pancreas, adherent, top dose 20 µM) — within 1.5-fold, 7.58 µM
- QIMR-WIL (acute myeloid leukaemia, suspension, top dose 20 µM) — 7-fold lower, 1.24 µM
- RC-K8 (B-cell lymphoma, suspension, top dose 20 µM) — higher, > 20 µM
- RCC10RGB (kidney, adherent, top dose 10.24 µM) — higher, > 10.2 µM
- RCC-AB (kidney, adherent, top dose 20 µM) — 1.9-fold higher, 16.7 µM
- RCC-ER (kidney, adherent, top dose 20 µM) — higher, > 20 µM
- RCC-FG2 (kidney, adherent, top dose 20 µM) — higher, > 20 µM
- RCC-JF (kidney, adherent, top dose 20 µM) — 1.7-fold higher, 14.4 µM
- RCC-JW (kidney, adherent, top dose 20 µM) — 4.1-fold lower, 2.1 µM
- RCC-MF (kidney, adherent, top dose 20 µM) — within 1.5-fold, 6.74 µM
- RCM-1 (large intestine, adherent, top dose 20 µM) — 5.5-fold lower, 1.59 µM
- RD (rhabdomyosarcoma, adherent, top dose 20 µM) — higher, > 20 µM
- REH (B-cell leukaemia, suspension, top dose 20 µM) — higher, > 20 µM
- RERF-GC-1B (stomach, adherent, top dose 20 µM) — higher, > 20 µM
- RERF-LC-KJ (lung adenocarcinoma, adherent, top dose 20 µM) — higher, > 20 µM
- RERF-LC-MS (lung adenocarcinoma, adherent, top dose 20 µM) — 1.8-fold higher, 15.6 µM
- RERF-LC-Sq1 (lung squamous cell carcinoma, adherent, top dose 20 µM) — higher, > 20 µM
- RF-48 (stomach, adherent, top dose 20 µM) — within 1.5-fold, 8.55 µM
- RH-1 (rhabdomyosarcoma, adherent, top dose 20 µM) — within 1.5-fold, 9.94 µM
- RH-41 (rhabdomyosarcoma, adherent, top dose 20 µM) — higher, > 20 µM
- RKN (ovary, adherent, top dose 20 µM) — 15-fold lower, 0.597 µM
- RKO (large intestine, adherent, top dose 20 µM) — 2.2-fold higher, 18.8 µM
- RL95-2 (endometrium, adherent, top dose 20 µM) — higher, > 20 µM
- RL (B-cell lymphoma, suspension, top dose 20 µM) — within 1.5-fold, 10.1 µM
- RO82-W-1 (thyroid, adherent, top dose 20 µM) — higher, > 20 µM
- ROS-50 (B-cell leukaemia, suspension, top dose 20 µM) — higher, > 20 µM
- RPMI-2650 (head and neck, adherent, top dose 20 µM) — higher, > 20 µM
- RPMI-6666 (Hodgkin lymphoma, suspension, top dose 20 µM) — 3-fold lower, 2.9 µM
- RPMI-8226 (myeloma, suspension, top dose 20 µM) — higher, > 20 µM
- RPMI-8402 (T-cell lymphoblastic leukaemia, suspension, top dose 20 µM) — 7.7-fold lower, 1.13 µM
- RPMI-8866 (chronic myeloid leukaemia, suspension, top dose 20 µM) — 2.2-fold higher, 18.9 µM
- RS4-11 (leukaemia, suspension, top dose 20 µM) — 2.2-fold higher, 19.3 µM
- RT4 (bladder, adherent, top dose 20 µM) — higher, > 20 µM
- RT-112 (bladder, adherent, top dose 20 µM) — 2.3-fold higher, 19.8 µM
- RVH-421 (melanoma, adherent, top dose 20 µM) — 2.1-fold lower, 4.13 µM
- RXF393 (kidney, adherent, top dose 20 µM) — higher, > 20 µM
- Raji (Burkitt lymphoma, suspension, top dose 20 µM) — higher, > 20 µM
- Ramos-2G6-4C10 (Burkitt lymphoma, suspension, top dose 20 µM) — 1.9-fold higher, 16.4 µM
- SAS (head and neck, adherent, top dose 20 µM) — within 1.5-fold, 9.19 µM
- SAT (head and neck, adherent, top dose 20 µM) — within 1.5-fold, 12.4 µM
- SBC-1 (small cell lung carcinoma, suspension, top dose 20 µM) — higher, > 20 µM
- SBC-3 (small cell lung carcinoma, adherent, top dose 20 µM) — 2-fold higher, 17.1 µM
- SBC-5 (small cell lung carcinoma, adherent, top dose 20 µM) — higher, > 20 µM
- SCC90 (head and neck, adherent, top dose 20 µM) — 1.9-fold lower, 4.48 µM
- SCC-3 (B-cell lymphoma, suspension, top dose 20 µM) — 2.2-fold higher, 19.3 µM
- SCC-4 (head and neck, adherent, top dose 20 µM) — higher, > 20 µM
- SCC-9 (head and neck, adherent, top dose 20 µM) — 5.1-fold lower, 1.7 µM
- SCC-15 (head and neck, adherent, top dose 20 µM) — 2.2-fold lower, 3.93 µM
- SCC-25 (head and neck, adherent, top dose 20 µM) — 1.5-fold higher, 13.1 µM
- SCH (stomach, adherent, top dose 20 µM) — higher, > 20 µM
- SF126 (glioma, adherent, top dose 20 µM) — higher, > 20 µM
- SF268 (glioma, adherent, top dose 20 µM) — 1.5-fold higher, 13.4 µM
- SF295 (glioma, adherent, top dose 20 µM) — higher, > 20 µM
- SF539 (glioma, adherent, top dose 20 µM) — higher, > 20 µM
- SH-4 (melanoma, adherent, top dose 20 µM) — 17-fold lower, 0.505 µM
- SHP-77 (small cell lung carcinoma, semi-adherent, top dose 20 µM) — within 1.5-fold, 12 µM
- SIG-M5 (acute myeloid leukaemia, suspension, top dose 20 µM) — lower, < 0.0781 µM
- SIMA (neuroblastoma, adherent, top dose 20 µM) — higher, > 20 µM
- SISO (cervix, adherent, top dose 20 µM) — higher, > 20 µM
- SJRH30 (rhabdomyosarcoma, adherent, top dose 20 µM) — higher, > 20 µM
- SJSA-1 (bone, adherent, top dose 20 µM) — 1.7-fold higher, 15 µM
- SK-CO-1 (large intestine, adherent, top dose 20 µM) — higher, > 20 µM
- SK-ES-1 (Ewing sarcoma, semi-adherent, top dose 20 µM) — 1.9-fold higher, 16.6 µM
- SK-GT-4 (oesophagus, adherent, top dose 20 µM) — 1.8-fold higher, 15.9 µM
- SK-HEP-1 (liver, adherent, top dose 20 µM) — higher, > 20 µM
- SK-LMS-1 (soft tissue, adherent, top dose 20 µM) — 2.1-fold lower, 4.06 µM
- SK-LU-1 (lung adenocarcinoma, adherent, top dose 20 µM) — 1.7-fold higher, 14.7 µM
- SK-MEL-1 (melanoma, suspension, top dose 20 µM) — 5.3-fold lower, 1.63 µM
- SK-MEL-2 (melanoma, adherent, top dose 20 µM) — higher, > 20 µM

The IC50 comes from the fitted curve, where viability falls to half of the control; fits outside the tested doses are given as limits. The AUC spans the tested range (256-fold, ending at the top dose) of the same fit; it is 1 without any effect and falls as sensitivity rises. The top dose, if marked as inferred, was calculated from the reported fits.
